According to publication PMC12136788:
The list shows a part of the results.

B1: 33028138_33033104_1131_CDS_ENSG00000078747_ENST00000374864|human|control|control (ssRNA)
RNA: GGGAGUUCUACAGUCCGACGAUCCCGCCGUUCCCAGCCAGGAGGUAGAGGUUCUGGUCUAUCCCAUGUUGUUCUUUUCUCAACAUGAUCUACAUAGUAAACUCGCCCGUGCUGGUCCACUCUCUGCUCCCAACCAGGUGGCAACAACAGAGGAUUGAGCAUCA
B2: chr11:122931392:122931393:-_ENSG00000109971_ENST00000227378|hu_hu|motif|central (ssRNA)
RNA: GGGAGUUCUACAGUCCGACGAUCUGUCAGAACCAUAGAAGACACCUCCUCUGGAUAGAAGCUUUUGGUCUCUCCCUUGUAUUCGGCUUGGACCUUGGGCCUGCCAGCAUCAUUCACCACCAUAAAGGGCCAAUGUUUCAUAUCCAACAGAGGAUUGAGCAUCA
B3: chr2:202488911:202488912:-_ENSG00000155755_ENST00000286196|hu_mus|hu_hu_hu_mus_False|8_28 (ssRNA)
RNA: GGGAGUUCUACAGUCCGACGAUCAUUGAAACAUUUUUCAUAAUCUCCAGUAGCAUUUCAGCAUUAUGUAACAAAAGCUCAAUUGUAAAUACAUGUAUCUUAUAAAAAUAAAAAUACAAACACGAGUAAAAAUGGGAGGCGCCACAACAGAGGAUUGAGCAUCA
B4: chr17:27085315:27085316:-_ENSG00000173065_ENST00000581407|hu_hu|FALSE|FALSE (ssRNA)
RNA: GGGAGUUCUACAGUCCGACGAUCACCUAGGAGGGUGAUGUAUGAUGUGUUGCACGUGGAGGGCAGCAGGGCUACCUAUCUAUACCCUGGGUGCUGAAUAUGAAGACUUCGACUCUCUGUGGGAUCGGGGGCUCGGUUGCCAGGCAACAGAGGAUUGAGCAUCA
B5: chr19:33076771:33076772:+_ENSG00000105185_ENST00000590247|hu_mus|FALSE|FALSE (ssRNA)
RNA: GGGAGUUCUACAGUCCGACGAUCCGCCAUCUGUAUAAGGUAGUUCUCCACUGCUUUAGUUUUUUCAGGCUUUACAAGUGCUAAGUUACUUAAUCUGGCCCGGGCUGACUGAUCCAGAACUUGGGCUAAGAUACUGUUUCUCAUCAACAGAGGAUUGAGCAUCA
B6: chr17:66526506:66526507:+_ENSG00000108946_ENST00000358598|hu_hu|FALSE|FALSE (ssRNA)
RNA: GGGAGUUCUACAGUCCGACGAUCGUACUGCUGGAUGUUUCGUUUGAGGAUGUCUGAGCAUGGGCCAAGAACACGUUCAAAUCUAGGUCGGUCCAGCUUAACGCACUUCAAGGGGCCACGAGCAACAACUGUGGCAGCACGAGGCAACAGAGGAUUGAGCAUCA
B7: 60527691_60527811_2217_CDS_ENSG00000081913_ENST00000262719|human|control|control (ssRNA)
RNA: GGGAGUUCUACAGUCCGACGAUCGGCAGCUGGAAGGCUAGGGUUCUGCCUUAGGAAGUUUUGUUUUAAAUUGAGAUGAGUGAGGUCUUGGCUGUAGAAGAGGUUGGCAGGCAGAUGUUCCAGGCUACAACACGAGAGGUCCACCAACAGAGGAUUGAGCAUCA
B8: chr4:21667751:21667752:+_ENSMUSG00000028252_ENSMUST00000108240|mus_mus|FALSE|FALSE (ssRNA)
RNA: GGGAGUUCUACAGUCCGACGAUCUUCUAGUAUAUGAUUCAUCCUGUAAGGAAAUUCCUUUGGAAAAGCAUAUGAAAAUCUAGUUUUUAAUACAGAAGUAGUAGCAGCAAUCAAUCUUGUAUUUGAGACAACACCAAAUUCCUCCAACAGAGGAUUGAGCAUCA
B9: chr14:45599971:45599972:-_ENSG00000100442_ENST00000396062|hu_hu|FALSE|FALSE (ssRNA)
RNA: GGGAGUUCUACAGUCCGACGAUCAUAGGCUGUAACCAAGUGGUCCUUGUUAGCUGUCUUGGCCACAUUUUUAAUGUUUCCUAAUAAUUUAUGUUCUGCAAGAAACGAAUCUGAACCGUGUUCCUGCAGAAACUUGAUAAUGUCCAACAGAGGAUUGAGCAUCA
B10: 111947740_111948246_1497_CDS_ENSG00000204842_ENST00000535949|human|control|control (ssRNA)
RNA: GGGAGUUCUACAGUCCGACGAUCAAUAUUUUCUUUAUUCCCUGCAGGAGAGUUCUGCCUCUGAUCUUGAAGCCUGGAAUCUUUAGCCUCACUAGAAGGGGUAACAGCUCUGUUCGAUGCAGGACUAGCAGGCGUAGGAGAUGCCAACAGAGGAUUGAGCAUCA
B11: chr15:98780418:98780419:-_ENSMUSG00000072235_ENSMUST00000097014|mus_mus|FALSE|FALSE (ssRNA)
RNA: GGGAGUUCUACAGUCCGACGAUCAAAGCACACAUUGCCACAUACAAAUUAACUGAUCAGACCACAACUUUCUGUGUUGGAACACAAUAAACAUCCCUGUGGAAGCAGCACCUUGUGACAUUUAAUUUAGUAUUCCUCUCCUUCCAACAGAGGAUUGAGCAUCA
B12: 6283536_6283656_2427_3pUTR_ENSG00000116237_ENST00000343813|human|control|control (ssRNA)
RNA: GGGAGUUCUACAGUCCGACGAUCAUUAAGCCAUGAAAUCUAGAAAUAAGUCAUAUUUCUGAGUUGAUAAAAUGCUUUUCUGAACAUACAUUUUAGGUAUCUGGCACAAUUAACCAAAUGUCUGCCCAUUUUUGUGUAGCUUUCCAACAGAGGAUUGAGCAUCA
B13: chr14:76904430:76904431:+_ENSMUSG00000022010_ENSMUST00000022587|mus_mus|mus_mus_mus_hu_True|1_58 (ssRNA)
RNA: GGGAGUUCUACAGUCCGACGAUCUGCAGCCAAAAACACCCUCGUGGAAAAAAAGAGGGAACACCAGCAGCCUUGUACAAACUAGAUAAAAUCUUCUGGCUUUCCGCAGCCCAGGGAGAAACAGAAAACGGCAGCCCUCGAGUGCAACAGAGGAUUGAGCAUCA
B14: chr3:69361433:69361434:+_ENSMUSG00000027784_ENSMUST00000029355|mus_mus|FALSE|FALSE (ssRNA)
RNA: GGGAGUUCUACAGUCCGACGAUCCACCCAUAGAUCUAUCUGGGCUACUUGUUACAGCUGCCCAUCUCUUCCCCCUCCCCUAAAAAAAAGCCACAGACAAACAAACUGACAAGGCAGAGGAUAACGUCUAGGGAAAUAUGGCCACAACAGAGGAUUGAGCAUCA

Biological target: T1, UNK ZnF1-3 (human, UniProt Q9C0B0 31-174)
T1 sequence: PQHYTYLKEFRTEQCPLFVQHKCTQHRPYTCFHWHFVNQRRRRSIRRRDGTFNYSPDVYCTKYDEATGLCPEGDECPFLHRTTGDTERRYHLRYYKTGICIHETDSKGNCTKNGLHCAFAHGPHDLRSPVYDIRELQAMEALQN
Experiment: nsRBNS (natural sequence RNA bind-n-seq); RBNS binding buffer (assumed for nsRBNS): 25 mM Tris pH 7.5, 150 mM KCl, 3 mM MgCl2, 0.01% Triton X-100, 500 ug/ml BSA, 20 U/ml SUPERase-In, 4 C; UNK is unkempt and MSI1 is Musashi-1; names of the RNAs are library labels; protein concentration not given here; high values mean tight binding

Binder	binding signal
B1	0.755 enrichment R
B2	1.19 enrichment R
B3	1.68 enrichment R
B4	1.03 enrichment R
B5	0.563 enrichment R
B6	1.88 enrichment R
B7	2.89 enrichment R
B8	1.28 enrichment R
B9	0.672 enrichment R
B10	0.936 enrichment R
B11	1.87 enrichment R
B12	0.666 enrichment R
B13	1.87 enrichment R
B14	2.14 enrichment R
